Data from patent US11178870B2 (priority 2017, dated 2021).

Assays:
[1] = system: Colletotrichum orbiculare; settings: 250 ppm spray, 2.5 ml/pot; investigated 6 to 10 days after inoculation
[2] = system: Phytophthora infestans; assay type: in vivo; settings: class of control value, Table 7
[3] = system: Magnaporthe grisea; assay type: in vivo; settings: class of control value, Table 7

SMILES | Test H control value (anthracnose on cucumber) [1] | Test F control value (late blight on tomato) [2] | Test A control value (blast on rice) [3]
CCn1c(-c2ccc(SC)cc2F)c(-n2ncc(C)c2Cl)cc(Br)c1=O [Compound 373] | H (H shows the control value more than 50%) | L (L shows the control value of 50% or less) | –
CCn1c(-c2ccccc2C(F)(F)F)c(-n2cc(C)cn2)cc(Br)c1=O [Compound 374] | H (H shows the control value more than 50%) | L (L shows the control value of 50% or less) | L (L shows the control value of 50% or less)
CCn1c(-c2ccccc2C(F)(F)F)c(-n2ncc(C)c2Cl)cc(Cl)c1=O [Compound 375] | H (H shows the control value more than 50%) | L (L shows the control value of 50% or less) | H (H shows the control value more than 50%)
Cc1cnn(-c2cc(Br)c(=O)n(N)c2-c2ccc(F)cc2F)c1Cl [Compound 376] | – | – | L (L shows the control value of 50% or less)
